In the test the target is SKAP2 homo-dimer of HaloTag-SKAP2 and hemi-luciferase-fused SKAP2 (human) (UniProt O75563). Kind of test: pull-down + split reporter (BiFC, NanoBiT); HaloTag-fused hook captured from HEK293T lysate on HaloLink resin, 6 washes with PBS 0.1% Tween; luminescence of the co-expressed GPCA pair on the resin; ratio of cells with the HaloTag vector to cells with the pCNeo vector expressing the same protein.

For part of its entries the source gives two or more results. The list is limited to them. An entry can have further records. Values given together appear to be repeats (runs, samples, wells or individuals); one of them may be the mean.

Chain of UniProt O75563 (O75563 whole entry, chain 1 of 2, the tested form may be a part): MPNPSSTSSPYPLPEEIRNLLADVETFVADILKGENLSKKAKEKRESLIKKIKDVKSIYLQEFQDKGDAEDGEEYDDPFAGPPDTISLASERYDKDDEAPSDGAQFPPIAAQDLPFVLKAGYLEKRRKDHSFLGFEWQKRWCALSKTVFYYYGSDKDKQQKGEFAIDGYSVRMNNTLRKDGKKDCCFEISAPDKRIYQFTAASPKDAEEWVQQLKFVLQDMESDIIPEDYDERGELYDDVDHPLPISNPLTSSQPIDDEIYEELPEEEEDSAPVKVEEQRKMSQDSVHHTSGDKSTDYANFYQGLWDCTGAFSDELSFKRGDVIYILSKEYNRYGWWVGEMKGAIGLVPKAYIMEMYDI
Chain of UniProt O75563 (O75563 whole entry, chain 2 of 2, the tested form may be a part): as the sequence (O75563 whole entry, chain 1 of 2, the tested form may be a part) above

“FYB fused N-terminally to Gaussia princeps luciferase fragment 1 (from UniProt O15117-3 1-839) (natural protein)”: the luminescence ratio (HaloTag vector to pCNeo control) was 1.33, 8.63, 1.05 [columns of one line].

(Values after PMC5862564.)
